Results as given in PubChem BioAssay AID1030 (National Center for Advancing Translational Sciences (NCATS), 2008).
Screen size: about 220,000 compounds; about 16,000 (7.3%) were called active. Inconclusive results, whose numbers are uncertain, are shown with a selection of clear calls. Calls come from the whole dose curve; as a rule, active = well fitted inhibition curve with a large enough effect (not every such curve was filed as active); inconclusive = small, poorly fitted or top-dose-only effect, or another doubt; inactive = no such curve, though single readings can be large or run the other way. No potency is given beside an inconclusive call; the fits are too rough.

target: Aldehyde dehydrogenase 1A1 (Homo sapiens) (UniProt P00352); test: qHTS Assay for Inhibitors of Aldehyde Dehydrogenase 1 (ALDH1A1); conditions: Purified ALDH1A1, NADH fluorescence, propionaldehyde substrate; series mostly up to 75.3 µM; activity, negative = inhibition: at the top concentration;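 for activity, negative = inhibition: plate controls were no enzyme wells and a reference inhibitor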
Sequence of UniProt P00352 (P00352 whole entry, looked up): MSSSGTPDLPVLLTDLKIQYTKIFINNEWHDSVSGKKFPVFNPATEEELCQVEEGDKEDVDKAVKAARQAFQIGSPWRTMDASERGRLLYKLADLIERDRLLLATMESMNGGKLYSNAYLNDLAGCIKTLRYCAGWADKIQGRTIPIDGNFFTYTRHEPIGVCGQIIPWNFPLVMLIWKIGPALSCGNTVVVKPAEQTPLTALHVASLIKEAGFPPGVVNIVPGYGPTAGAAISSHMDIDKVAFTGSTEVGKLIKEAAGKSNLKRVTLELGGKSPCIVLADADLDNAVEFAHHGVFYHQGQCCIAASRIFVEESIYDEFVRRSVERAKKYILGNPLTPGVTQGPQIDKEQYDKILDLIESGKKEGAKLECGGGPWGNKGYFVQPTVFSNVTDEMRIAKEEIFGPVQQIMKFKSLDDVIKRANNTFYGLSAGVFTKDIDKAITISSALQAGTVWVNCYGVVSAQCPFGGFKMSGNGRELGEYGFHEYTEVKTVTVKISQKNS
Potency is the fitted concentration of half-maximal effect; tags give direction and shape of the fitted curve.

Compound	activity, negative = inhibition	Potency
Cc1cc(C)cc(N2CCCn3c2nc2c3c(=O)n(CCN3CCOCC3)c(=O)n2C)c1	inactive: -2.21%	
Cc1ccc(S(=O)(=O)Oc2ccc(/C=C(/NC(=O)c3ccccc3)C(=O)NC(C)C(=O)O)cc2)cc1 (stereo not drawn)		active: 3.98 µM
Cc1ccc(C#CC2C=CC(Oc3ccc4c(c3)OCO4)C(CO)O2)c(C)c1 (stereo not drawn)	inactive: 0.253% [at 13.5 µM]	
CN(C)c1ccc(-c2cc(N(C)Cc3ccco3)ncn2)cc1		inconclusive [inhibitor, partial curve]
Cn1c(C(C#N)/C(=N\S(=O)(=O)c2cccs2)c2ccccc2)nc2ccccc21 (stereo not drawn)		inconclusive [inhibitor, partial curve]
Cc1cccnc1NC(=S)NC(=O)c1cccs1	inactive: -1.28%	
CCCn1nc(C(=O)NCc2ccc3c(c2)OCO3)c2ccccc2c1=O		inconclusive [inhibitor, partial curve]
O=C1/C(=C\c2ccsc2)NC(=S)N1c1ccccc1		active: 28.2 µM
CCSc1ccccc1C(=O)Nc1ccc2c(c1)OCO2	inactive: -6.99%	
CCOC(=O)Cc1cc(-c2ccc(OC)cc2)nc2ccc3ccccc3c12		inconclusive [inhibitor, partial curve]
Cc1sc2c3ccsc3ccc2[n+]1C		active: 4.47 µM
O=C(c1cccs1)N1CCN(c2ccccc2)CC1	inactive: -1.24%	
Cc1ccc(CSCCNC(=O)c2ccc(Cl)c(S(=O)(=O)N3CCOCC3)c2)cc1		inconclusive [inhibitor, single point]
Cc1ccc(C2=NN(S(C)(=O)=O)C(c3cccs3)C2)cc1 (stereo not drawn)	inactive: -7.59%	
O=S(=O)(O)c1ccc2c(N=Nc3cccc4ccccc34)c(O)c(S(=O)(=O)O)cc2c1		inconclusive [inhibitor, single point]
CC(=O)O[C@H]1CC2(C)[C@@H](C[C@@H](O)[C@H]3[C@@]4(C)CC[C@@H](O)[C@@H](C)[C@@H]4CC[C@@]32C)C1=C(CCC=C(C)C)C(=O)O (stereo partly drawn)	inactive: 1.09%	
CN(C)c1ccc(/C=[N+](\[O-])C(C)(C)/C=N/O)cc1		active: 22.4 µM
COc1cccc([C@@H]2Oc3ccc(OC)cc3C(=O)[C@H]2OC(=O)NC2CCCC2)c1		inconclusive [inhibitor, single point]
C/C(=N\N1CCN(C)CC1)c1ccc(Cl)c(Cl)c1	inactive: 7.55%	
c1ccc(-c2nnc(SCC3CCCCO3)nc2-c2ccccc2)cc1 (stereo not drawn)		inconclusive [inhibitor, partial curve, poor fit]
CC(=O)[C@@H]1[C@@H](C(=O)c2ccccc2)[C@]2(C(=O)Nc3ccccc32)[C@H]2C=Cc3cc(F)ccc3N12		inconclusive [inhibitor, single point]
O=C(Nc1ccc2oc(-c3ccccc3)nc2c1)C1CCCO1 (stereo not drawn)		inconclusive [inhibitor, partial curve]
O=C(/C=C/Sc1ncn[nH]1)c1ccc(Cl)cc1		active: 8.91 µM
Cc1cc(C)n2cc(CSCC(=O)O)nc2n1		inconclusive [inhibitor, partial curve]

Compound	activity, negative = inhibition	Potency
CCOC(=O)N1CCN(C(=O)c2cn(CC)c3cc(N4CCN(C)CC4)c(F)cc3c2=O)CC1		inconclusive [inhibitor, partial curve]
CCOC(=O)c1oc2cc(O)ccc2c(=O)c1-c1ccccc1OC		inconclusive [inhibitor, single point]
Cc1ccccc1N1C(=O)CC2(CCCC2)CC1=O	inactive: 4.24%	
COc1ccc2c(c1)-c1nc(/N=C/c3ccc(O)c(OC)c3)sc1CC2		active: 25.1 µM
O=S(=O)(NCC1NCCc2ccccc21)c1ccccc1 (stereo not drawn)		inconclusive [inhibitor, single point]
COc1cc(OC)cc(-c2nc3ccccc3c(=O)n2OC(=O)c2ccccc2C)c1	inactive: -2.35%	
C=CCOc1ccc(CNc2nccs2)cc1OC		inconclusive [inhibitor, single point]
CCOc1ccc(N2CC(C(=O)NCCN3C(=O)S/C(=C\c4cccnc4)C3=O)CC2=O)cc1 (stereo not drawn)	inactive: -7.75%	
CCCCOc1ccc(NC(=O)CN2CCN(C(=O)OCC)CC2)cc1		inconclusive [inhibitor, single point]
O=C(CSc1nc(-c2ccccc2Cl)ns1)c1ccc(Cl)cc1		inconclusive [inhibitor, single point]
CC(C)Cn1c(CN(C)Cc2ccccc2)nc2c1c(=O)n(C)c(=O)n2C	inactive: 3.08%	
O=C(O)CCc1nn2c3ccccc3nc2n(CCN2CCCCC2)c1=O		inconclusive [inhibitor, partial curve]
C/C(=N\NS(=O)(=O)c1ccc(Cl)cc1)c1ccc(O)cc1		inconclusive [inhibitor, single point]
CCn1c(SCC(=O)NC(=O)Nc2ccc3c(c2)OCCO3)nnc1-c1cccs1		inconclusive [inhibitor, single point]
CCOc1ccc(OCC)c(S(=O)(=O)N2CCC(C)CC2)c1		inconclusive [inhibitor, single point]
Cc1ccc(S(=O)(=O)NNC(=S)NC(=O)c2ccc([N+](=O)[O-])cc2)cc1		active: 17.8 µM
N#C/C(=C\C=C\c1ccccc1[N+](=O)[O-])C(=O)NC1CCCCC1		active: 25.1 µM
O=C1CCCN1CCCNc1ncnc2c1cnn2-c1ccc(Cl)cc1		inconclusive [inhibitor, single point]
Cc1ccccc1S(=O)(=O)Nc1cccnc1		inconclusive [inhibitor, single point]
O=C(O)CNc1nc(-c2ccccc2)c2cc([N+](=O)[O-])ccc2n1		active: 17.8 µM
Cc1ccc(NC(=O)CSC2=C(C#N)C(c3ccc4c(c3)OCO4)CC(=O)N2)cc1C (stereo not drawn)	inactive: 0.831%	
COc1ccc(S(=O)(=O)NCCC(=O)NCc2ccccc2)cc1		active: 25.1 µM
N#CCSCC(=O)Nc1ccccc1	inactive: -7.73%	
Cc1cc([N+](=O)[O-])ccc1NC(=S)NC(=O)C(c1ccccc1)c1ccccc1		inconclusive [inhibitor, partial curve]
